Source: PubChem BioAssay AID686979 (National Center for Advancing Translational Sciences (NCATS), 2013)
Screen size: about 420,000 compounds; about 50,000 (12%) were called active. The shares of active, inactive and inconclusive entries below differ from those in the screen. Calls come from the whole dose curve; as a rule, active = well fitted inhibition curve with a large enough effect; inconclusive = small, poorly fitted or top-dose-only effect; inactive = flat fitted curve, though single readings scatter. No potency is given beside an inconclusive call; the fits are too rough.
% is set by controls: 0 for no effect and ±100 for the full control effect; potency is the fitted concentration of half-maximal effect; tags give direction and shape of the fitted curve.

Experiment: qHTS for Inhibitors of human tyrosyl-DNA phosphodiesterase 1 (TDP1): qHTS in cells in presence of CPT; note: nearly all actives have a fitted effect of over 55% in size
Details: chicken DT40 Tdp1-/-;hTDP1 cells + 20 nM CPT, ATP luminescence, 48 h; activity change, negative = growth inhibition: at 46.2 µM (top of the series)
Method in brief: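 Cell growth measured by CellTiter-Glo luminescence after a minimum 48 h, 37 C compound exposure with 20 nM CPT in Tdp1-knockout DT40 cells stably expressing hTDP1, seeded 400/well; qHTS titration format.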
With `CN(C)S(=O)(=O)c1ccc(S(=O)(=O)N(Cc2ccco2)Cc2ccccc2Cl)cc1` the Potency was active: 20.6 µM.
In the case of `O=C(CC1N=C2c3ccccc3N=C(SCC(=O)Nc3cccc(C(F)(F)F)c3)N2C1=O)NCc1cccs1` (stereo not drawn), the Potency is reported as inconclusive [inhibitor, single point].
In the case of `CC1(c2nnc(Cc3ccccc3)o2)CC(c2ccc(C#N)cc2)=NO1` (stereo not drawn), the Potency is reported as inconclusive [inhibitor, single point].
With `COc1cccc(/C=c2\s/c(=C\C(=O)C(C)(C)C)[nH]c2=O)c1` the Potency was inconclusive [inhibitor, single point].
With `COc1ccc2cc(C(=O)Nc3ccc(O)cc3)sc(=O)c2c1OC` the Potency was inconclusive [inhibitor, single point].
With `O=C(CCn1c2c(c3ccccc31)CCCC2)NNC(=O)c1ccccc1[N+](=O)[O-]` the Potency was inconclusive [inhibitor, full curve, poor fit].
In the case of `CCOC(=O)CC(Nc1nc(N2CCOCC2)nc(N2CCOCC2)n1)c1ccccc1Cl` (stereo not drawn), the Potency is reported as inconclusive [inhibitor, partial curve, poor fit].
For `CCc1ccc(CN(Cc2ccco2)C(=O)c2ccccc2Cl)cc1`, the Potency was inconclusive [inhibitor, single point].
With `CC(C)(C)c1ccc(C(=O)Nc2cccc(S(=O)(=O)NC3=NCCC3)c2)cc1` the Potency was inconclusive [inhibitor, single point].
With `COC(=O)N(C)C[C@H]1OCc2cnnn2CCCC(=O)N([C@H](C)CO)C[C@H]1C` the Potency was “inactive”.
With `O=C(NCc1ccccn1)c1cccc(S(=O)(=O)Nc2ccc(F)cc2)c1` the Potency was “inactive”.
For `CCOc1ccc2c(c1)nc(NCCCO)n2Cc1ccccc1`, the Potency was inconclusive [inhibitor, single point].
With `Cc1ccc2c(Cl)c(C(=O)NCCc3ccccc3)sc2c1` the Potency was inconclusive [inhibitor, single point].
With `CCc1c(C)c(C#N)c2nc3ccccc3n2c1NCc1ccccn1` the Potency was inconclusive [inhibitor, single point].
For `O=C(CSc1nc2ccccc2s1)NC1CCCc2ccccc21` (stereo not drawn), the Potency was inconclusive [inhibitor, single point].
In the case of `CCCCCCCCNS(=O)(=O)CCNC1CCCCC1`, the Potency is reported as inconclusive [inhibitor, single point].
In the case of `CCCCn1c(N)c(N(CCOC)C(=O)COC(=O)c2cc(CC)c(C)s2)c(=O)[nH]c1=O`, the Potency is reported as inconclusive [inhibitor, single point].
In the case of `COC(=O)CCC(=O)c1oc2ccc(Br)cc2c1N`, the Potency is reported as inconclusive [inhibitor, single point].
For `O=C(Cc1ccc(Cl)c(Cl)c1)Nc1ccccc1N1CCCC1`, the Potency was active: 14.6 µM.
With `CCn1c(=O)c(CCC(=O)NCCN2CCOCC2)c(C)c2c(C)nn(-c3cccc(C)c3)c21` the Potency was inconclusive [inhibitor, single point].
With `COCCn1c(N)c(N(Cc2ccccc2)C(=O)c2ccc(N3CCCC3=O)cc2)c(=O)[nH]c1=O` the Potency was “inactive”.
With `Cc1cccc(N(C)S(=O)(=O)c2ccc(-c3cnc(C4CC4)o3)cc2)c1` the Potency was active: 0.0291 µM.
With `Cc1ccc(CCN2CC(C(=O)NCc3ccc4c(c3)OCO4)CC2=O)cc1` (stereo not drawn) the Potency was “inactive”.
In the case of `COc1cc(/C=N\NC(C)=O)ccc1OC/C=C/c1ccccc1`, the Potency is reported as “inactive”.
For `Cc1ccc(C(=O)COC(=O)c2cc(-c3ccccc3)nc3ccccc23)cc1C`, the Potency was “inactive”.
In the case of `COc1ccc(Cl)cc1NC(=O)C(C)OC(=O)Cn1cc(C(F)(F)F)ccc1=O` (stereo not drawn), the Potency is reported as inconclusive [inhibitor, single point].
In the case of `C/C(=N\NC(=O)c1ccoc1C)c1cccc2ccccc12`, the Potency is reported as inconclusive [inhibitor, single point].
For `COc1cc(NC(=O)Cn2c(=O)n(Cc3ccccc3OC)c(=O)c3cccnc32)cc(OC)c1`, the Potency was “inactive”.
In the case of `O=C(C1CCCCC1)N1C[C@@H](O)[C@H](n2cc(C3CC3)nn2)C[C@@H]1c1ccc(Cl)cc1`, the Potency is reported as inconclusive [inhibitor, partial curve].
With `Cc1c(C(=O)NCc2ccc(C(C)C)cc2)sc(=O)n1Cc1ccc(S(=O)(=O)N(C)C)cc1` the Potency was active: 13 µM.
With `CC(=O)Nc1ccc(S(=O)(=O)N2CCc3ccccc3C2)cc1` the activity change, negative = growth inhibition was inconclusive: -34.9% [inhibitor].
For `Cc1ccc(C)c(N2CCN(S(=O)(=O)c3ccc4oc(=O)c5ncn(C)c5c4c3)CC2)c1`, the Potency was inconclusive [inhibitor, single point].
For `Cn1c(=O)c2cc(NC(=S)NC3CC3)ccc2n1C/C=C/c1ccccc1`, the Potency was “inactive”.
With `CC(=O)c1cccc(NC(=O)C2CCN(S(=O)(=O)c3ccc(F)cc3)CC2)c1` the activity change, negative = growth inhibition was inconclusive: -34.4% [inhibitor].
With `COC(=O)c1ccc2[nH]c3cccc(/C(=C/c4ccccc4)c4ccccc4)c3c2c1` the Potency was inconclusive [inhibitor, single point].
For `CC1CCCC(C)N1C(=O)COC(=O)C1CCN(S(=O)(=O)c2ccc3c(c2)OCCO3)CC1` (stereo not drawn), the Potency was “inactive”.
For `CC1(C)CC2CC(C)(CN2C(=O)COC(=O)c2ccc(NC(=O)CC#N)cc2)C1` (stereo not drawn), the Potency was inconclusive [inhibitor, single point].
With `C=C(C)C1CC=C(CN2CCN(Cc3ccccc3)CC2)CC1` (stereo not drawn) the Potency was inconclusive [inhibitor, single point].
In the case of `Cc1cccc(N2CCN(S(=O)(=O)c3ccc4c(c3)NC(=O)CO4)CC2)c1C`, the Potency is reported as inconclusive [inhibitor, single point].
For `CCOC(=O)Nc1csnn1`, the Potency was “inactive”.
In the case of `CCC(C)(C)n1nnnc1CN(Cc1cc2cc(OC)ccc2[nH]c1=O)C1CCCC1`, the Potency is reported as inconclusive [inhibitor, single point].
For `CC1CC(Nc2ccccc2)c2ccccc2N1C(=O)c1ccco1` (stereo not drawn), the Potency was active: 23.1 µM.
In the case of `COc1cccc(C(=O)COC(=O)CCC(=O)c2ccccc2)c1`, the Potency is reported as “inactive”.
In the case of `O=C(CSC1=NCCS1)N1CCN(c2ccc(Cl)cc2)CC1`, the Potency is reported as inconclusive [inhibitor, single point].
In the case of `COc1cc(C(=O)N(C)CC(=O)Nc2cccc(F)c2)ccc1OCc1ccccc1`, the Potency is reported as inconclusive [inhibitor, single point].
In the case of `Cc1ccc(-c2c3c([nH]c(=S)c2C#N)CCCC3)o1`, the Potency is reported as active: 23.1 µM.
For `CCCCNC(=O)C1(C)CCCCN1Cc1ccc(-c2ccccc2)cc1` (stereo not drawn), the Potency was active: 13 µM.
In the case of `COc1ccc(NC(=O)N2CCC(C(=O)c3ccc(F)cc3)CC2)cc1`, the Potency is reported as inconclusive [inhibitor, single point].
For `COc1ccc(NC(=O)CCN2CCN(c3cccc(Cl)c3)CC2)cc1`, the Potency was inconclusive [inhibitor, single point].
With `Cc1c(C(=O)N2CCN(c3ccccc3F)CC2)oc2c1C(=O)CC(C)(C)C2` the Potency was inconclusive [inhibitor, single point].
In the case of `Cc1ccc(-c2ccc(/C=N/N3C(=O)C4C5C=CC(C6CC56)C4C3=O)o2)c([N+](=O)[O-])c1` (stereo not drawn), the Potency is reported as inconclusive [inhibitor, single point].
With `CCOC(=O)Nc1ccc(Oc2ccccc2)cc1` the Potency was inconclusive [inhibitor, single point].
With `Cc1c(Cl)cccc1NC(=O)CSc1ccc(-c2cccnc2)nn1` the activity change, negative = growth inhibition was inconclusive: -30.1% [inhibitor].
With `O=C(CSCC(=O)Nc1ccccc1)N/N=C/c1c(O)ccc2ccccc12` the Potency was active: 4.47 µM.
With `CCCC(=O)Nc1nc2ccc(S(=O)(=O)N3CCCCC3)cc2s1` the Potency was active: 1.3 µM.
With `Cc1ccc(CN2C(=O)C[C@@H](NC(=O)OCC3c4ccccc4-c4ccccc43)C/C=C\C2c2ccc(C)cc2)cc1` (stereo partly drawn) the Potency was inconclusive [inhibitor, single point].
In the case of `NS(=O)(=O)c1ccc(NC(=O)c2ccc(F)cc2F)c(NC(=O)c2ccc(F)cc2F)c1`, the Potency is reported as “inactive”.
For `CC(C)c1ccc(/C=N/NC(=O)c2cccc(Cl)c2)cc1`, the Potency was active: 10.3 µM.
In the case of `COc1cccc(CC2(CO)CCCN(Cc3ccccc3Cl)C2)c1` (stereo not drawn), the Potency is reported as inconclusive [inhibitor, single point].
In the case of `O=C(c1ccc2c(c1)CCC2)N1CCN(Cc2c(F)cccc2Cl)CC1`, the Potency is reported as inconclusive [inhibitor, single point].
In the case of `N#Cc1c(NC(=S)NC(=O)c2ccccc2)sc2c1CCCC2`, the Potency is reported as inconclusive [inhibitor, partial curve].
In the case of `COc1cccc(NC(=O)[C@H](Cc2ccccc2)NC(=O)[C@@H]2Cc3ccccc3CN2)c1`, the Potency is reported as inconclusive [inhibitor, single point].
For `CC1CCCC(C)N1S(=O)(=O)c1ccc(Cl)cc1` (stereo not drawn), the Potency was “inactive”.
With `O=C(NCc1ccco1)C(c1ccc(F)cc1)N(C(=O)Cc1cccs1)c1cccnc1` (stereo not drawn) the Potency was “inactive”.
With `CCOc1ccc(OCC)c(NC(=O)C2CCCN(S(=O)(=O)c3ccc4c(c3)oc(=O)n4C)C2)c1` (stereo not drawn) the Potency was inconclusive [inhibitor, partial curve, poor fit].
For `COc1ccc(C2Nc3ccc(NC(=O)CO)cc3C(=O)N2Cc2cccc(Cl)c2)cc1COc1ccc(NC(C)=O)cc1` (stereo not drawn), the Potency was inconclusive [inhibitor, single point].
For `CC(=O)N1N=C(c2ccc3ccccc3c2)OC12CCCC2`, the Potency was active: 20.6 µM.
In the case of `CCCc1cc2c(cc1NC(=O)c1ccc(Br)cc1)OCO2`, the Potency is reported as inconclusive [inhibitor, partial curve].
